The antibiotic and cytotoxicity screens of Wong et al. (2023)
The other results are listed elsewhere or left out.

What was measured:
HSkMC = human skeletal muscle cells; assay: cytotoxicity call (relative viability < 0.9); conditions: 10 µM
HepG2 = assay: cytotoxicity call (relative viability < 0.9); conditions: 10 µM
S. aureus RN4220 = assay: growth inhibition call (relative growth <= 0.2); conditions: 50 µM

Compound	cytotoxicity call (HSkMC)	cytotoxicity call (HepG2)	growth inhibition call (S. aureus RN4220)
COc1ccc(NC(=O)Nc2ccc3c(c2)[C@@H]2C[C@H](CC(=O)NCc4ccccn4)O[C@@H](CO)[C@@H]2O3)cc1	inactive	inactive	inactive
COc1ccc(NC(=O)N(C)C[C@H]2OCCCC[C@@H](C)Oc3ccc(NC(=O)Nc4ccc5c(c4)OCO5)cc3C(=O)N([C@@H](C)CO)C[C@H]2C)cc1	inactive	inactive	inactive
COc1ccc(NC(=O)Nc2ccc3c(c2)C(=O)N([C@H](C)CO)C[C@H](C)[C@@H](CN(C)C(=O)CCC(F)(F)F)OCCCC[C@H](C)O3)cc1	inactive	inactive	inactive
C[C@@H]1CCCCO[C@H](CN(C)C(=O)c2ccccc2)[C@@H](C)CN([C@H](C)CO)C(=O)c2cc(NC(=O)Cc3ccccc3)ccc2O1	inactive	inactive	inactive
COc1ccc(CCNC(=O)[C@@]2(c3ccccc3)CC(=O)N(Cc3ccccc3)[C@@H]2c2ccc(COC(=O)NCCCCCC(=O)NO)cc2I)cc1	inactive	inactive	inactive
C[C@@H]1CN([C@H](C)CO)C(=O)c2ccccc2-c2ccccc2CO[C@@H]1CN(C)Cc1ccccc1C(F)(F)F	inactive	inactive	inactive
Cc1noc(C)c1NC(=O)N(C)C[C@@H]1Oc2c(NS(C)(=O)=O)cccc2C(=O)N([C@H](C)CO)C[C@@H]1C	inactive	inactive	inactive
COCCNC(=O)C[C@@H]1CC[C@@H]2[C@H](COc3ccc(NS(=O)(=O)c4ccc(Cl)cc4)cc3C(=O)N2C)O1	inactive	inactive	inactive
Cc1ccc(S(=O)(=O)Nc2ccc3c(c2)C(=O)N([C@@H](C)CO)C[C@@H](C)[C@H](CN(C)C(=O)Nc2c(C)noc2C)OCCCC[C@@H](C)O3)cc1	inactive	inactive	inactive
CNC(=O)C[C@H]1NCCNC1=O	inactive	inactive	inactive
C[C@@H]1CN([C@H](C)CO)C(=O)c2cc(NC(=O)NC3CCCCC3)ccc2O[C@@H]1CN(C)C(=O)Nc1cccc2ccccc12	inactive	inactive	inactive
CCNC(=O)C[C@H]1C=C[C@@H](NC(=O)C2CC2)[C@H](CO)O1	inactive	inactive	inactive
CC(CN(C)C)CN1c2ccccc2Sc2ccccc21.O=C(O)C(O)C(O)C(=O)O (stereo not drawn)	inactive	active	inactive
C[C@H]1CN([C@@H](C)CO)C(=O)c2cc(NC(=O)CCCCCC(=O)Nc3ccccc3N)ccc2O[C@@H]1CN(C)S(=O)(=O)c1cn(C)cn1	inactive	inactive	inactive
C[C@@H]1CCCCO[C@@H](CN(C)S(=O)(=O)c2ccccc2)[C@H](C)CN([C@@H](C)CO)C(=O)c2cc(NS(C)(=O)=O)ccc2O1	inactive	inactive	inactive
Cc1ccc(S(=O)(=O)N(C)C[C@H]2Oc3ccc(NC(=O)CCN4CCOCC4)cc3CC(=O)N([C@@H](C)CO)C[C@@H]2C)cc1	inactive	inactive	inactive
Cc1ccc(S(=O)(=O)N(C)C[C@H]2OCCCC[C@H](C)Oc3ccc(NS(=O)(=O)c4ccc(Cl)cc4)cc3C(=O)N([C@@H](C)CO)C[C@@H]2C)cc1	inactive	active	inactive
COCC(=O)N(C)C[C@H]1Oc2cc(C#CCC3CCCC3)ccc2S(=O)(=O)N([C@@H](C)CO)C[C@@H]1C	inactive	inactive	inactive
C[C@H]1CN([C@@H](C)CO)C(=O)c2cccc(NC(=O)c3nc4ccccc4s3)c2O[C@@H]1CN(C)C(=O)Nc1ccc(F)cc1	inactive	inactive	inactive

Compound	cytotoxicity call (HSkMC)	cytotoxicity call (HepG2)	growth inhibition call (S. aureus RN4220)
COc1cc2c3cc1Oc1cc(ccc1O)O[C@H]1c4c(cc(OC)c(O)c4Oc4ccc(cc4)C[C@@H]3N(C)CC2)CCN1C	inactive	inactive	inactive
Cc1ccc(S(=O)(=O)Nc2ccc3c(c2)C(=O)N([C@H](C)CO)C[C@@H](C)[C@@H](CN(C)Cc2ccccc2)OCCCC[C@H](C)O3)cc1	inactive	inactive	inactive
CCCNC(=O)N[C@@H]1C=C[C@H](CC(=O)N2CCN(C)CC2)O[C@@H]1CO	inactive	inactive	inactive
C1CNCCN1.CC12CCC3c4ccc(OS(=O)(=O)O)cc4CCC3C1CCC2=O (stereo not drawn)	inactive	inactive	inactive
C[C@@H]1CN([C@H](C)CO)C(=O)c2cc(NC(=O)Nc3cccc4ccccc34)ccc2O[C@@H](C)CCCCO[C@H]1CN(C)C(=O)C1CCCCC1	inactive	inactive	inactive
O=C1c2ccccc2[C@@]2(Cc3ccccc3N(C3CC3)C2=O)[C@H](c2ccc(CO)cc2)N1Cc1ccccc1	inactive	active	inactive
c1ccc(-c2cc(-c3nc4ccccc4[nH]3)c3ccccc3n2)cc1	inactive	inactive	inactive
N=C(N)N.O=C(O)O	inactive	inactive	inactive
COc1ccc(CN(C)C[C@@H]2OCCCC[C@H](C)Oc3ccc(NC(=O)Nc4ccc(C(F)(F)F)cc4)cc3C(=O)N([C@H](C)CO)C[C@@H]2C)cc1	active	active	inactive
COc1ccc([Si](C)(C)[C@@H]2[C@@H](CC(=O)N3Cc4ccccc4C[C@H]3CO)O[C@]3(C(=O)N(Cc4ccc(N5CCC5=O)cc4)c4ccccc43)[C@H]2C)cc1	inactive	inactive	inactive
Cc1ccc(S(=O)(=O)N(C)C[C@H]2Oc3c(NC(=O)c4cnccn4)cccc3C(=O)N([C@H](C)CO)C[C@H]2C)cc1	inactive	inactive	inactive
COc1ccc(S(=O)(=O)N[C@@H]2C=C[C@@H](CC(=O)NCCc3ccncc3)O[C@H]2CO)cc1	inactive	inactive	inactive
C[C@@H]1CCCCO[C@H](CN(C)Cc2ccc(C(F)(F)F)cc2)[C@@H](C)CN([C@@H](C)CO)C(=O)c2cc(NC(=O)c3ccccc3)ccc2O1	inactive	inactive	inactive
C[C@@H]1CN([C@H](C)CO)S(=O)(=O)c2ccc(C#C[C@@H](C)O)cc2O[C@H]1CN(C)C	inactive	inactive	inactive
CCS(=O)(=O)Nc1ccc2c(c1)/C(=C(/Nc1ccc(CN3CCCCC3)cc1)c1ccccc1)C(=O)N2	active	active	inactive
COC(=O)c1ccc(C(=O)OC)c(N)c1	inactive	inactive	inactive
C[C@@H]1CN([C@H](C)CO)C(=O)c2cc(NC(=O)Nc3ccc(C(F)(F)F)cc3)ccc2O[C@H]1CN(C)Cc1ccc(C(=O)Nc2ccccc2N)cc1	inactive	inactive	inactive
CC(=O)OC[C@H]1O[C@H](n2ccc(=O)[nH]c2=O)[C@@H](OC(C)=O)[C@@H]1OC(C)=O	inactive	inactive	inactive
CN1C(=O)c2cc(NC(=O)c3cnccn3)ccc2OC[C@@H]2O[C@@H](CC(=O)N[C@H]3CCN(Cc4ccccc4)C3)CC[C@H]21	inactive	inactive	inactive

Compound	cytotoxicity call (HSkMC)	cytotoxicity call (HepG2)	growth inhibition call (S. aureus RN4220)
C[C@@H]1CN([C@H](C)CO)C(=O)Cc2cc(NS(C)(=O)=O)ccc2O[C@H]1CN(C)Cc1ccc(C(=O)O)cc1	inactive	inactive	inactive
C[C@@H]1CN([C@H](C)CO)C(=O)c2cc(NS(=O)(=O)c3ccccc3)ccc2O[C@@H](C)CCCCO[C@H]1CN(C)C(=O)NC1CCCCC1	inactive	inactive	inactive
COc1ccc(S(=O)(=O)N(C)C[C@H]2Oc3ccc(NC(=O)c4ccncc4)cc3CC(=O)N([C@@H](C)CO)C[C@H]2C)cc1	inactive	inactive	inactive
O=C(O)C[C@@H](O)C(=O)O	inactive	inactive	inactive
NC(Cc1cc(I)c(Oc2cc(I)c(O)c(I)c2)c(I)c1)C(=O)[O-].[Na+] (stereo not drawn)	inactive	inactive	inactive
C[C@H]1CCCCO[C@@H](CN(C)C(=O)Nc2ccc(C(F)(F)F)cc2)[C@@H](C)CN([C@@H](C)CO)C(=O)c2cc(NC(=O)CCC(F)(F)F)ccc2O1	inactive	inactive	inactive
CN1C(=O)c2cc(NC(=O)c3cnccn3)ccc2OC[C@@H]2O[C@@H](CC(=O)NCC3CCCCC3)CC[C@H]21	inactive	inactive	inactive
C[C@@H]1CN([C@@H](C)CO)C(=O)c2cccc(NC(=O)c3cnccn3)c2O[C@@H]1CN(C)C(=O)Nc1ccc(F)cc1	inactive	inactive	inactive
C[C@@H]1CCCCO[C@H](CN(C)Cc2ccccc2)[C@@H](C)CN([C@@H](C)CO)C(=O)c2cc(NS(=O)(=O)c3ccc(F)cc3)ccc2O1	inactive	inactive	inactive
Cc1noc(C)c1NC(=O)N(C)C[C@@H]1OCCCC[C@@H](C)Oc2ccc(NC(=O)Nc3ccc(F)cc3)cc2C(=O)N([C@@H](C)CO)C[C@H]1C	inactive	inactive	inactive
CC(C)NC(=O)N(C)C[C@@H]1Oc2c(NS(=O)(=O)c3ccccc3)cccc2C(=O)N([C@H](C)CO)C[C@H]1C	inactive	inactive	inactive
O=S(=O)(c1c[nH]c2ncccc12)N1CC(S(=O)(=O)N2CCOCC2)C1	inactive	inactive	inactive
CC(C)C[C@H](NC(=O)[C@@H](NC(=O)CNC(=O)CN)C(C)C)C(=O)N[C@H](C(=O)N[C@@H](CCC(N)=O)C(=O)N1CCC[C@H]1C(=O)NCC(=O)O)C(C)C	inactive	inactive	inactive
Cc1ccc(S(=O)(=O)Nc2ccc3c(c2)C(=O)N([C@H](C)CO)C[C@@H](C)[C@H](CN(C)S(=O)(=O)c2ccccc2)O3)cc1	inactive	inactive	inactive
COc1cc(C(C)=O)ccc1O	inactive	inactive	inactive
COc1cc(CNC(=O)CCCCC=CC(C)C)ccc1O	inactive	inactive	inactive
C[C@H](CO)N1C[C@H](C)[C@@H](CN(C)S(=O)(=O)c2ccccc2)Oc2ccc(NC(=O)CCN3CCOCC3)cc2C1=O	inactive	inactive	inactive
Cc1ccc(S(=O)(=O)Nc2ccc3c(c2)CC(=O)N([C@H](C)CO)C[C@H](C)[C@H](CN(C)Cc2ccc(-c4ccccc4)cc2)O3)cc1	inactive	active	inactive
